Results taken from publication PMC4336329 (PLoS ONE, 2015).
The whole screen tested about 310,000 compounds, of which about 14,000 (4.5%) showed an effect of 50% or more. Effects have a minus sign here. The list shows a part of the results.

These compounds were tested against human ether-à-go-go-related gene (hERG) potassium channel (human, UniProt Q12809) (assay: primary screen, population patch clamp on CHO cells stably expressing hERG).
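Note: peak tail current of the secondary pulse compared with the same well before compound.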

Chain of human ether-à-go-go-related gene (hERG) potassium channel (Q12809 whole entry, looked up): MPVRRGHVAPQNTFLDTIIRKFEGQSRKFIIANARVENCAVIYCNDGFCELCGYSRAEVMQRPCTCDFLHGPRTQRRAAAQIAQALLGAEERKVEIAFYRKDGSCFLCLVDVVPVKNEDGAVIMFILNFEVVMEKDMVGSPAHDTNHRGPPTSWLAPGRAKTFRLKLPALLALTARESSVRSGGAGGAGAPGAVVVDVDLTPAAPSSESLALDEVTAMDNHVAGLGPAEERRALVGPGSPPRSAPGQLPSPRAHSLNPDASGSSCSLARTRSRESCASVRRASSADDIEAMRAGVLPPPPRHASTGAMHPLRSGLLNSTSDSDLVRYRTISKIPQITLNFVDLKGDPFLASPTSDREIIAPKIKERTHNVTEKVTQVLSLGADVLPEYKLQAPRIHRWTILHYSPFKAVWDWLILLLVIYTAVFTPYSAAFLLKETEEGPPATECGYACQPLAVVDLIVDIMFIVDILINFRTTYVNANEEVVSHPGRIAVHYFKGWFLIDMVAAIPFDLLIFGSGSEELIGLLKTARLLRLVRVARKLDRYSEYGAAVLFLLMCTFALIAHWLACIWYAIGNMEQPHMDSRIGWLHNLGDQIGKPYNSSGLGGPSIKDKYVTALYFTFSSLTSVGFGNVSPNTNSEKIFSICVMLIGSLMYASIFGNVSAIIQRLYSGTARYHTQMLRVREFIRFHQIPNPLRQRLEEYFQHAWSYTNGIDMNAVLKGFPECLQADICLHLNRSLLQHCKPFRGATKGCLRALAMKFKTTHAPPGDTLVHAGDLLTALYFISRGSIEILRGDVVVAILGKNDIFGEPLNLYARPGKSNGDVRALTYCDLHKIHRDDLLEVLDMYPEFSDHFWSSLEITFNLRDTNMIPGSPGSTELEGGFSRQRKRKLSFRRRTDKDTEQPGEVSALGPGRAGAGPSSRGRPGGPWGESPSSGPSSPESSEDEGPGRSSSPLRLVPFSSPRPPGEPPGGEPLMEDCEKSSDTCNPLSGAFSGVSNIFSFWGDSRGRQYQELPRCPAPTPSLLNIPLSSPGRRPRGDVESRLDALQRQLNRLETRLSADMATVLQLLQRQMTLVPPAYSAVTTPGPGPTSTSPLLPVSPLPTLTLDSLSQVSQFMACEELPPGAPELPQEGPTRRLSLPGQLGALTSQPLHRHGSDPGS

SMILES | hERG current change (%, negative = inhibition) at 10uM
CCc1nnc(NC(=O)/C=C/c2ccc(C)o2)s1 | -13.9%
COc1ccccc1C(=O)OCCCN=C1NS(=O)(=O)c2ccccc21 | 9%
Cc1cccc(C(=O)N[C@H](C(=O)Nc2nccs2)C(C)C)c1 | 6.12%
Cc1ccsc1/C=N/NC(=O)c1sccc1C | 13.2%
CCCCn1c(N)c(N(CCC(C)C)C(=O)c2cc(CC)c(C)s2)c(=O)[nH]c1=O | 7.2%
CC(=O)N1CC2(C)CN(C(C)=O)CC(C)(C1)C2=O | 2.37%
CCc1ccc(CNC(=O)CCC(=O)n2ncc3cc(C)ccc32)cc1 | 19%
COc1ccc(-c2nc(O)c3cnccn23)cc1 | 14.1%
O=C(Nc1ccsc1C(=O)O)c1ccccc1 | 24.8%
COc1ccc(NC(=O)CSC(C)c2nc3ccccc3c(=O)[nH]2)cc1 (centres unmarked) | 9.38%
CCOc1ccc(/C=N/NC(=S)Nc2c(C)cccc2C)cc1 | 7.13%
CCOC(=O)C1CCCN(c2c(NCc3ccco3)c(=O)c2=O)C1 (centres unmarked) | -3.85%
CCc1ccccc1N(CC(=O)NC1CCCC1)C(=O)CNC(=O)c1cccs1 | -8.04%
Cc1ccc(N=C2NC(=O)/C(=C/c3cccnc3)S2)cc1C | 16%
CCN(CC)CCN(C(=O)c1ccc(S(=O)(=O)N(C)C2CCCCC2)cc1)c1nc2ccc(OC)cc2s1.Cl | 0.617%
CCc1noc(C)c1C(=O)Nc1cccc2ncccc12 | 20.1%
Cn1ncc2c(Nc3ccc(-c4ccccc4)cc3)ncnc21 | 6.9%
COc1ccc(Cl)cc1N(CC(=O)NCC(C)C)S(=O)(=O)c1ccc(C)c([N+](=O)[O-])c1 | 8.34%
Cc1cccc(OC(C)C(=O)NC2CCS(=O)(=O)C2)c1C (centres unmarked) | 2.9%
Brc1ccccc1-c1nnc2sc(-c3ccc4c(c3)OCCO4)nn12 | -8.44%
O=C(COC(=O)CSCC(=O)N1CCCCC1)Nc1ccc(Cl)cc1 | -10.9%
O=S(=O)(Nc1ccc(F)cc1)c1ccc(NC(=S)Nc2ccccc2)cc1 | 1.21%

SMILES | hERG current change (%, negative = inhibition) at 10uM
CCOC(=O)c1cncc(NC(=O)c2ccccc2)c1 | 5.68%
COc1ccccc1C(=O)Nc1ccc(S(=O)(=O)N2CCCCC2)cc1 | -20.8%
CCOC(=O)c1cnc(SCc2ccccc2)nc1N | -7.85%
CCOc1ccccc1CNC(=O)c1ccc(NC(=O)C2=C(C)OCCS2)cc1 | 11.8%
COC(=O)c1ccc(CN2CCC(n3nccc3NC(=O)C3CC3)CC2)cc1 | -55.6%
CCOC(=O)c1c(C)[nH]c(C)c1C(=O)CSc1ncccn1 | -2.23%
CCN(CC)C(=O)/C(=C\c1ccc(Br)cc1)NC(=O)c1ccccc1OC | -27.3%
Cn1nc(C(F)(F)F)c(C(=O)Nc2cccc(C(F)(F)F)c2)c1SCc1ccc(Cl)cc1 | -8.86%
COc1ccc(OC)c(Nc2nc3nonc3nc2N2CCCCC2)c1 | 14.4%
CC1CCCN(CCCNC(=O)c2ccc(CS(=O)(=O)Cc3cccc(Cl)c3)o2)C1 (centres unmarked) | -40.7%
COc1cccc(NC(=O)CCN2CCN(c3ccccc3F)CC2)c1 | -12%
COc1cc(C2=NOC(C(=O)Nc3c(C)n(C)n(-c4ccccc4)c3=O)C2)cc(OC)c1OC (centres unmarked) | -3.79%
NC(=O)c1ccc(NC(=O)COC(=O)/C=C/c2ccc3c(c2)OCO3)cc1 | 11.8%
O=C(NCCc1c[nH]c2ccccc12)C1Cc2ccccc2CN1C(=O)c1ccco1 (centres unmarked) | -71.6%
C[C@@]12CCC=C[C@H]1[C@H](c1ccc(C(F)(F)F)cc1)N(Cc1ccccc1)C2=O | 12.2%
CCNC(=O)NC(=O)COC(=O)CCCc1nc2ccccc2s1 | 6.11%
CCOC(=O)CCC(=O)N1CCNC(=O)C1 | -1.43%
CCOC(=O)C1CCN(S(=O)(=O)c2ccc3c(c2)NC(=O)C(C)S3)CC1 (centres unmarked) | 4.7%
CC(=O)Nc1ccc(NC(=O)C(C)OC(=O)c2ccc(C)s2)cc1 (centres unmarked) | 3.53%
Cc1nn(C)c(C)c1NC(=O)CCCSc1nc(-c2ccco2)cc(C(F)(F)F)n1 | -0.504%
CC(C)c1ccc(/C=C(\NC(=O)c2ccccc2)C(=O)NCCCn2ccnc2)cc1 | -78.2%
Cc1cc(/C=C/C(=O)O)c(C)n1-c1ccc(Cl)cc1 | 11.6%
